# In the BET-seq Pho4 binding data (Le et al. 2018):
# The other results are listed elsewhere or left out. The energies were worked out here from pooled read counts, against the library average; single values are noisy.
# Target: T1, Pho4 (S. cerevisiae) (UniProt P07270)
# T1 sequence: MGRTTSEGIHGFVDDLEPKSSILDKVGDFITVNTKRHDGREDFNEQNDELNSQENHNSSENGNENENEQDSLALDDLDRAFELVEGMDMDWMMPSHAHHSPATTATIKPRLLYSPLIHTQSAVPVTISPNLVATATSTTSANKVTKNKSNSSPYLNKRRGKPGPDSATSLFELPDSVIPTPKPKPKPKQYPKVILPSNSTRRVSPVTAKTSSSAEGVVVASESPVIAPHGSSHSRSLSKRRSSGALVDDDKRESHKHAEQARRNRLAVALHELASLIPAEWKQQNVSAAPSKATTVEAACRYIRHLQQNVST
# Assay: relative binding free energy (BET-seq); higher = weaker binding
# Details: reference: library average
row,Sequence,relative binding free energy [kcal/mol]
1,TTTAACACGTGTTTAT,-0.12
2,GGGGCCACGTGGGGTG,-0.25
3,GGAGACACGTGGAAGT,0.17
4,CGAAGCACGTGATGGT,0.02
5,GCGGTCACGTGTGGAG,0.08
6,TCGTGCACGTGTTTTG,0.13
7,AGGTTCACGTGAGCTG,0.35
8,TCGGGCACGTGTGAAT,0.03
9,GTAGTCACGTGAGCAG,0.48
10,GTTTGCACGTGCGTCT,-0.08
11,CGAGACACGTGGGGGC,-0.11
12,CGAGACACGTGGGAGG,-0.08
13,GAAGTCACGTGGCTGG,0.14
14,CACATCACGTGGGGGT,0.08
15,AAGTGCACGTGTTGCG,-0.16
16,CGTCGCACGTGGAGGG,-0.11
17,GTATACACGTGTGCTT,0.01
18,TTGTACACGTGTTAAG,0.1
19,AGGGACACGTGTGAAG,-0.04
20,ATTTGCACGTGAAAGT,0.35
21,CAGAGCACGTGGGTTG,-0.24
22,TTAGACACGTGATTAG,0.19
23,TTGTTCACGTGTTTGT,0.25

row,Sequence,relative binding free energy [kcal/mol]
1,GAGATCACGTGGTAGT,0.16
2,CTTGGCACGTGTTGGG,-0.13
3,TTTCGCACGTGATATG,0.02
4,TGTGTCACGTGATATA,0.15
5,CTGTACACGTGAGTGG,0.33
6,CTTTTCACGTGCGGAT,0.43
7,ATAGGCACGTGTTAAA,-0.02
8,CTGTACACGTGTGGCG,0.17
9,CCGGTCACGTGCGGGT,0.07
10,TGTTCCACGTGTATAT,-0.03
11,ATTGGCACGTGTTTTA,-0.04
12,AGACTCACGTGAGTGG,0.31
13,ATTTACACGTGATGGC,0.31
14,GAAGGCACGTGTGATT,-0.1
15,ACCTTCACGTGGTTTG,0.3
16,TATGGCACGTGAATCG,0.11
17,TGTGCCACGTGTCAGT,-0.08
18,GGTAGCACGTGGTTAT,-0.04
19,GTCCGCACGTGAGTGT,0.17
20,GGTGTCACGTGAAATT,0.38
21,GTGCGCACGTGAGTGA,0.22
22,AACTGCACGTGGGGGA,-0.14
23,GTTTTCACGTGGGTAA,0.3

row,Sequence,relative binding free energy [kcal/mol]
1,GATAACACGTGTAGGT,0.03
2,GTGCACACGTGGCGGG,-0.12
3,TAGGTCACGTGAGATA,0.28
4,TTTGTCACGTGCTTCT,0.09
5,GGGTTCACGTGTGCCG,0.16
6,CGGCTCACGTGGGTAG,0.08
7,GTATTCACGTGCTCGG,0.25
8,AAGATCACGTGTGTAG,0.09
9,GTATTCACGTGGGGTC,0.28
10,TACGTCACGTGGTATT,-0.03
11,GGAGACACGTGTGGGG,0.09
12,GGGCGCACGTGGTAAT,-0.16
13,TGCATCACGTGAGGTT,0.42
14,TATCGCACGTGGACGG,0.1
15,ACGCGCACGTGGGTGG,-0.39
16,GTTGCCACGTGAAATT,0.35
17,GTTCGCACGTGTTGTT,0.03
18,GTACGCACGTGTTTGG,-0.05
19,TATGACACGTGGCGGG,-0.11
20,GATATCACGTGGTCGG,0.22
21,TAGGTCACGTGAAAGG,0.32
22,GAGCGCACGTGTGGTG,-0.15
23,TTCGTCACGTGTGCTT,0.2

row,Sequence,relative binding free energy [kcal/mol]
1,TGGTTCACGTGTGAGG,0.37
2,CGTATCACGTGGTTTT,0.24
3,AGGGACACGTGAGGTA,0.12
4,GAATTCACGTGAGAGT,0.38
5,AGGTCCACGTGGCGTG,-0.17
6,TCTTGCACGTGGGTGC,-0.08
7,TCGAGCACGTGTGTGA,-0.1
8,TGTCGCACGTGTGTTT,0.06
9,ATATGCACGTGTTGAA,-0.06
10,GATTTCACGTGGCAGT,0.32
11,CTGCTCACGTGTGATT,0.4
12,TTAGGCACGTGATCTG,-0.03
13,GGGTGCACGTGTGCGC,0.02
14,GGGCGCACGTGGTCTT,-0.13
15,CAGGACACGTGTGAGG,0.04
16,TTGCACACGTGATAGT,0.17
17,TCTGTCACGTGGTGGT,0.1
18,ACGGTCACGTGATGGG,0.18
19,CTGTTCACGTGAGTTA,0.38
20,TAGATCACGTGGTTCA,0.11
21,AGAATCACGTGTTTTA,0.13
22,TGGTACACGTGCGTAG,0.03
23,GGGAACACGTGAAGTG,0.44

row,Sequence,relative binding free energy [kcal/mol]
1,ATTTTCACGTGGCTTT,0.3
2,ATCATCACGTGGGGTT,-0.02
3,CGTGCCACGTGGTGGG,-0.24
4,TATTACACGTGTCTGA,0.19
5,CTTTACACGTGTTGGC,0.29
6,AGTGGCACGTGCTAGG,-0.03
7,TAGTTCACGTGCGATG,0.44
8,TTCGACACGTGTGAGT,0.01
9,TTGGGCACGTGTTACT,-0.14
10,GGATTCACGTGTGGTA,0.36
11,TTGAACACGTGAGAGT,0.27
12,ATCTTCACGTGGGATT,0.18
13,TGAGACACGTGTAGCG,0.16
14,CGTTACACGTGTGAGT,0.01
15,ATAAACACGTGAAGGG,0.26
16,GGGGGCACGTGGACCT,-0.22
17,CTGTCCACGTGGTGGG,-0.11
18,GATTGCACGTGCTTTG,0.04
19,TAGGCCACGTGTTGGA,-0.09
20,GTTTTCACGTGTGTCG,0.25
21,GTGTTCACGTGGCTGA,0.4
22,TTTTGCACGTGGTCCC,0.13
23,TCTAGCACGTGAGAGG,0.17
